This is an account of results in the supplement of paper PMC11417369.

The other results are listed elsewhere or left out.

For the assay, the system named is PF3D7_0420300 AP2 domain 1 (GST-tagged). Nature of the assay: gcPBM binding intensity (ln(normalized median fluorescence intensity)); higher = stronger DNA binding. The gist of the method:
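Each value is the highest Masliner-normalised natural-log median intensity across replicate spots of either orientation of a probe. The probes were primer-extended double-stranded 36-bp intergenic genomic sequences on an Agilent 4 × 180k array, alongside negative controls, exposed for 1 h to GST-tagged P. falciparum DNA-binding domains expressed in E. coli. Bound protein was picked up with Alexa488 anti-GST antibody and scanned at 488 nm.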
In the case of “ATCTTATATATACGTTGTACTACAGGATATGTCATA [XGTACX_site5734]”, the “gcPBM binding intensity (ln)” value was 9.28.
For “TGTATATTATAAGATAGTACATATATATAATATATA [XGTACX_site1297]” the value was 9.14.
On to “TTCATTTACCCTTATTAACACACAAAATATAATACG [CACACA_site8821]”, for which the “gcPBM binding intensity (ln)” value came out at 9.51.
Regarding “ATAAATATCATATATATACACACGTAATACATAATA [CACACA_site4001]”, the “gcPBM binding intensity (ln)” value was 9.56.
With “TCTTACAAAAAAAAAAAAAAATAAAATAAAATATAT [CACACA_negctrl_site1575]” the figure was 9.09; with “AAGGAGATAATTTATTGTACATATAATAAATGAACA [XGTACX_site6252]”, 9.18; with “TTAATATTATGTTAAAGTACTTTATATATATATAAT [XGTACX_site2646]”, 8.96.
With “CAAACATTTTAATGTACACACACCCACAGACAAACA [CACACA_site5522]” the figure was 9.78; with “TTCTTTTTGAAATATTAACACACATTTTGTTAATTA [CACACA_site9337]”, 9.43; with “AGGAATTTATAAAATTGTACTTTTAATTACCTACAG [XGTACX_site3153]”, 9.05.
Turning to “AACGAAAGAAAAAAAGCACACACAGTTTTGAGCAAT [CACACA_site8658]”, the “gcPBM binding intensity (ln)” value was 9.75.
“ACCATGATAAATGTATTAAATGTATCATAACCTATG [CACACA_negctrl_site513]”: the “gcPBM binding intensity (ln)” value stood at 9.22.
For “ATCCGTGTCTGAAATACACACATGATAATGTGAATG [CACACA_site8210]” the value was 9.42.
For “ATGGAAACAAGCATCACACATATAAATATATATATA [CACACA_site4979]” the value was 9.44; for “AAATAAGAGAAAATATGTACATACATATATTTATAT [XGTACX_site6210]”, 9.36; for “TCATAAAATATGTTTTGTACATAAAATTAAACAAGT [XGTACX_site1763]”, 9.08.
For “ATATAATTTGTTATACTAACTTTTTAATTATTGATA [GTGCAC_negctrl_site443]”, the “gcPBM binding intensity (ln)” value came out at 9.15.
For “AAATATAAATAAAGATGTACATTATCTATATGTGAT [XGTACX_site4863]”, the “gcPBM binding intensity (ln)” value was 9.35.
For “AATACGTTTATATATTGTACGTTATATATATATATA [XGTACX_site7452]” the value was 9.26.
In the case of “AAGAAAAGCAAACAAGTGCATAATAACAAAAAAAAT [GTGCAC_site9725]”, the “gcPBM binding intensity (ln)” value was 9.63.
For “TATTTATTTATAAACACACAAATATTTTTATTTATA [CACACA_site6889]” the value was 9.15; for “TAAGTTCGAATTACTTAAATATTGATTTTTTTAAAA [TGCATGCA_negctrl_site114]”, 8.74; for “AATTTTCTACAAATGTGTACTAAATAAAATATTACT [XGTACX_site7175]”, 9.13.
For the sequence “ATGTGTGTATTTTATAGTACAGTTACAAGCATTTTT [XGTACX_site6351]”, the “gcPBM binding intensity (ln)” value was 9.57.
For “ACAATGAGGATATATACACACATACATTAAAAAAAT [CACACA_site6955]” the value was 9.77; for “TTTTTCTGTTCTTTTTGTACTTAAATATATTTATTT [XGTACX_site5658]”, 9.57; for “AAAAAAGAAAAAAGGACACACATAAATATACACCCG [CACACA_site5590]”, 9.75.
In the case of “CACAAAAATAAACACACACACATATATATATATATA [CACACA_site4704]”, the “gcPBM binding intensity (ln)” value came out at 9.75.
With “AGAATATAATTTTTATGTACATATATTAAATATATT [XGTACX_site8521]” the figure was 9.19.
For “ACTTTTATTATTTATATACACACTTGCTGAAATGTT [CACACA_site3637]” the value was 9.81; for “AGTTATAAAATATTTGCATGTAAATATATTATCTAT [TGCATGCA_site1015]”, 9.22.
“TTTTTTTTTTTTAGAGTACACACTTTTTTACATTTA [CACACA_site3836]”: the “gcPBM binding intensity (ln)” value turned out to be 9.28.
On to “GTTGAAAATACAGAACGTACACGTTTGCCATATTGT [XGTACX_site2254]”, for which the “gcPBM binding intensity (ln)” value came to 9.22.
For “TATGAAATGCTCCAATCACACATGAATGTAATATAT [CACACA_site5458]” the value was 9.17; for “ATATGATTTATAAAGTGTACCTTATTATAAGAAACA [XGTACX_site7914]”, 9.11; for “TAAGATGATATAGACTGTACATATTGAACTTACAAG [XGTACX_site4290]”, 9.21.
As for “ATTCATATTAAATATATATATATATATATATATATA [CACACA_negctrl_site484]”, the “gcPBM binding intensity (ln)” value was 8.96.
For “GAAGAAAAAGAAAAAAGTACATATATTATATTATAA [XGTACX_site7870]” the value was 9.04; for “GTTTTTAAATATGCCATACACACTACTATATAATAA [CACACA_site1927]”, 9.53.
For “TAATATATTAATTTTTGTACTTAATTATATGTTTTT [XGTACX_site5654]”, the “gcPBM binding intensity (ln)” value stood at 9.31.
On to “TAATATATTATGAGGGGTACATAATATGGTTTATTG [XGTACX_site8301]”, for which the “gcPBM binding intensity (ln)” value was found to be 9.34.
Consider “ATATTTATATTTATGTGTACATATGAAATAATTATT [XGTACX_site7765]”, for which the “gcPBM binding intensity (ln)” value amounted to 9.14.
Regarding “ATATCTTATATCTTCACACATACACAATAAATACAT [CACACA_site5028]”, the “gcPBM binding intensity (ln)” value turned out to be 9.55.
As for “CTAAGAAGTATTTACACACCAACAAGGCGAAAAAAA [CACACA_site2945]”, the “gcPBM binding intensity (ln)” value turned out to be 9.58.
In the case of “AATGTATTCTCTCATGCACACTTTCTTTAAGGGACC [CACACA_site5245]”, the “gcPBM binding intensity (ln)” value amounted to 9.31.
Consider “ATTTTTATTTTATATACACACAATAATACTAGAATA [CACACA_site7810]”, for which the “gcPBM binding intensity (ln)” value came to 9.38.
For “AGATATATAAAATATACACACAGTAATATTTATATA [CACACA_site6767]” the value was 9.31; for “ATATATATCTACATATGTACATATATACATTACACA [XGTACX_site7210]”, 9.41.
With “ATTTCATATGGTCAACGTACTCATGCATCCCTCCTT [XGTACX_site437]” the figure was 9.22; with “AATTATATTTGAAATACACACATAAAAACCATATAG [CACACA_site7598]”, 9.73.
On to “TCAAAAAAGACACACCGTACATACTATTTGGACAGG [XGTACX_site7699]”, for which the “gcPBM binding intensity (ln)” value stood at 9.56.
Turning to “TTTATTTTATCATTTGCACACGCACCCCCACATAAA [CACACA_site8007]”, the “gcPBM binding intensity (ln)” value was found to be 9.67.
“TTCTAAATTAATAATACACACTTGCTAAAATCATTA [CACACA_site5733]”: the “gcPBM binding intensity (ln)” value was 9.09.
For “TTCTTATATTGTACAGTACACACCTTTATAATGTTA [CACACA_site7953]” the value was 9.66; for “ATATAAATAACGTGTACACACATATGTATTTATATA [CACACA_site6520]”, 9.5; for “ATTCTCCATGTTTGATGTACTCATATGACGACGGAG [XGTACX_site4923]”, 9.23.
“TTTTTATGATTATACTTATATAATTTCATGATTGAA [CACACA_negctrl_site228]”: the “gcPBM binding intensity (ln)” value was found to be 8.98.
As to “AATATTTCTATATGAACATGCAATGTATCTTTTTAT [TGCATGCA_site738]”, the “gcPBM binding intensity (ln)” value was 9.13.
Regarding “AATACTTACCAAAATACACACACACCCAAAATATAT [CACACA_site8559]”, the “gcPBM binding intensity (ln)” value amounted to 10.1.
For “AAGATGAACCTTTACACATGCAACAAAAAATATACA [TGCATGCA_site166]” the value was 9.43; for “ATCAACATTATGTTTAGTACTTAGTGAATTGTTAAT [XGTACX_site4913]”, 9.22.
Take “ATATATATATATATATGTACATATTTACATTTTGTA [XGTACX_site3529]”: the “gcPBM binding intensity (ln)” value amounted to 9.17.
For “AATAAAGGAGCCTATGAACACACACCGGTACATATA [CACACA_site9352]” the value was 9.83.
For “TATACACATTCGCGTTGTACAAAAAAAAAAAAAAAG [XGTACX_site2880]”, the “gcPBM binding intensity (ln)” value was determined as 9.05.
With “ATAAAAAAAAGAAAAACACACACATATATATATATA [CACACA_site8243]”, the “gcPBM binding intensity (ln)” value came to 9.61.
Regarding “ATAATAATAGTAATATGTACATATATATATATATAT [XGTACX_site7437]”, the “gcPBM binding intensity (ln)” value stood at 9.53.
As to “ATAATAAAATAAATCACACATAATATAATGTAATAT [CACACA_site6144]”, the “gcPBM binding intensity (ln)” value amounted to 9.55.
Turning to “ACAAAAAAATAAAATATATATATATATATAATATAT [CACACA_negctrl_site805]”, the “gcPBM binding intensity (ln)” value amounted to 9.2.
As to “GAATTTTTGACGATATAGGAAATAATTATCCTGAAG [XGTACX_negctrl_site61]”, the “gcPBM binding intensity (ln)” value stood at 8.89.
With “CTGTTAATTATATATTGTACAAAAGATATGATTATA [XGTACX_site6927]” the figure was 9.04; with “TGGACCAAACGACAAAAAAAAAGCAGAAAACAAAAA [GTGCAC_negctrl_site693]”, 9.49; with “AAATAAAGAATATAAATACACACTTAAATATATATT [CACACA_site4007]”, 9.59.
As for “TTTTTAAAAAAAAAAAAATAAAAAAAAAAAAAATAT [XGTACX_negctrl_site7]”, the “gcPBM binding intensity (ln)” value is 9.
Regarding “ATTTATATATTTATATGTACATATCTATACATATAT [XGTACX_site7580]”, the “gcPBM binding intensity (ln)” value was determined as 9.41.
Regarding “ATTAAGTCTTATATTACACACGACATTGTAATGTAA [CACACA_site528]”, the “gcPBM binding intensity (ln)” value is 9.29.
As for “ATTCCACTGTTTTAGTGTACTGGTCGTTTTTTTTTT [XGTACX_site1738]”, the “gcPBM binding intensity (ln)” value was determined as 9.91.
With “AATTTTTTATACACAAGTACAAACGCGTAGTCACTT [XGTACX_site2458]” the figure was 9.19; with “AAAAATAAAACAATTACACACATAATTTTATTTTTA [CACACA_site928]”, 9.61; with “TCCAAAATATCCTTCACACACGAACAGTTTCATTTA [CACACA_site5511]”, 9.54.
For “ATATATATATATATATGTACATATAATTTTTTTTTT [XGTACX_site6948]” the value was 9.06; for “TTTATATTAATTTGTGTAAATGCATATGATGAGCAT [XGTACX_negctrl_site254]”, 9.03; for TAAATTTTTTTTTTGATGCACTTAGTTATTATATTT, 9.33.
For “ATAACAATTATTTATCTACACACTTTTATGTTATTT [CACACA_site7886]” the value was 9.74.
In the case of “AATGGCAAAATAGGCACACACACATATACAGATATA [CACACA_site4726]”, the “gcPBM binding intensity (ln)” value came to 10.1.
For “AAATGCGCCATGTGTACACATATATATATATATATA [CACACA_site4649]” the value was 9.48.
For “TACATATATAAAAATTGTACACTTCATAAGAAAAAA [XGTACX_site4347]” the value was 9.14.
Regarding “TTAAATAAGTTCTTCACACATATATATATATATATA [CACACA_site4742]”, the “gcPBM binding intensity (ln)” value came to 9.22.
As to “AAAATTTTTTAACACTGTACTTGTAATATTAAAACT [XGTACX_site8369]”, the “gcPBM binding intensity (ln)” value was 9.14.
